This note sets out measurements from the BET-seq Pho4 binding data (Le et al. 2018).

Some of the results follow. The energies were worked out here from pooled read counts, against the library average; single values are noisy.

The target in the assay is T1, Pho4 (S. cerevisiae) (UniProt P07270).
T1 sequence: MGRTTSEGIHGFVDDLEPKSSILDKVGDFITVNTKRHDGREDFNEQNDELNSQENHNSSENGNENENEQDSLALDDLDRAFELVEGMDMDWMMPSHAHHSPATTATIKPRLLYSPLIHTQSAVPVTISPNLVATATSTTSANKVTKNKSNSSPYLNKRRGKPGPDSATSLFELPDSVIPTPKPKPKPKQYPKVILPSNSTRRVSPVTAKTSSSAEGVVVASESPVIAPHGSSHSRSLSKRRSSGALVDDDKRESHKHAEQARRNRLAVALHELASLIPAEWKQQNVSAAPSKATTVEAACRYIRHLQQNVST
Put plainly: relative binding free energy (BET-seq); higher = weaker binding. The note with it: reference: library average.
Consider TAATTCACGTGGGGAC, for which the “relative binding free energy” value turned out to be 0.09 kcal/mol.
For CTGGTCACGTGGCTGG the value was -0.1 kcal/mol; for ATCGGCACGTGGGTCA, -0.2 kcal/mol; for ATTTACACGTGGGTGT, -0.07 kcal/mol.
Consider GAATGCACGTGAGTTG, for which the “relative binding free energy” value worked out at 0.18 kcal/mol.
Regarding TACTGCACGTGGTCGG, the “relative binding free energy” value was -0.13 kcal/mol.
For GCATGCACGTGTGTTG, the “relative binding free energy” value is -0.06 kcal/mol.
The result for TGGAGCACGTGCAGTA reads -0.13 kcal/mol; that for GTTAGCACGTGTGGCA, 0.06 kcal/mol; that for TAAAGCACGTGGGTGG, -0.13 kcal/mol.
Regarding AAAGGCACGTGATTGA, the “relative binding free energy” value turned out to be 0.05 kcal/mol.
For TAAATCACGTGTGAGG the value was 0.02 kcal/mol; for TTTATCACGTGCGGAG, 0.22 kcal/mol.
Regarding GGGACCACGTGTTTTG, the “relative binding free energy” value was -0.05 kcal/mol.
For AGGTTCACGTGGCGCG the value was 0.17 kcal/mol; for ACTAACACGTGGGGGA, 0.06 kcal/mol; for ATATGCACGTGGGGTT, -0.26 kcal/mol.
For TTCTGCACGTGGGGGC the value was -0.18 kcal/mol.
Regarding ATGTTCACGTGTGAGA, the “relative binding free energy” value stood at 0.36 kcal/mol.
As for TTGTGCACGTGTCTAG, the “relative binding free energy” value was -0.12 kcal/mol.
The result for AGTCGCACGTGGGTGT reads -0.16 kcal/mol.
As to GGGAGCACGTGGATGC, the “relative binding free energy” value is -0.06 kcal/mol.
Take CGGGGCACGTGCAGGG: the “relative binding free energy” value is -0.1 kcal/mol.
On to TAGTGCACGTGATTGC, for which the “relative binding free energy” value turned out to be 0 kcal/mol.
With GGGAACACGTGTTGGG, the “relative binding free energy” value stood at 0.11 kcal/mol.
Turning to GTTAGCACGTGGGCTA, the “relative binding free energy” value was -0.13 kcal/mol.
For CATTGCACGTGTGTGC, the “relative binding free energy” value was -0.03 kcal/mol.
For TTTAGCACGTGTAGGA the value was -0.09 kcal/mol.
Regarding GGTGGCACGTGCGGCA, the “relative binding free energy” value was -0.2 kcal/mol.
The result for TGTTACACGTGATGTC reads 0.27 kcal/mol.
In the case of CGTGGCACGTGTGGCA, the “relative binding free energy” value was -0.17 kcal/mol.
Take GAGGACACGTGTGCGG: the “relative binding free energy” value came to 0.12 kcal/mol.
As for GGGGGCACGTGCGAGC, the “relative binding free energy” value was -0.2 kcal/mol.
Consider TCTATCACGTGGAGTG, for which the “relative binding free energy” value stood at 0.2 kcal/mol.
Regarding TTAAGCACGTGAATCG, the “relative binding free energy” value was determined as 0.29 kcal/mol.
ACTAGCACGTGGTAGT: the “relative binding free energy” value is -0.24 kcal/mol.
In the case of ATTTACACGTGCGTTG, the “relative binding free energy” value is -0.04 kcal/mol.
The result for GGTTTCACGTGGGACG reads 0.3 kcal/mol; that for ATAAGCACGTGTTGTT, -0.11 kcal/mol; that for GGAGTCACGTGTGTAA, 0.1 kcal/mol.
On to GGGCTCACGTGTGAGT, for which the “relative binding free energy” value turned out to be 0.4 kcal/mol.
CGGGTCACGTGGTGCA: the “relative binding free energy” value is -0.04 kcal/mol.
As to GAGGGCACGTGGGGAA, the “relative binding free energy” value was 0.01 kcal/mol.
Regarding TGAATCACGTGTCATG, the “relative binding free energy” value was 0.08 kcal/mol.
Take GTAATCACGTGAAGTA: the “relative binding free energy” value came out at 0.46 kcal/mol.
Take GTTACCACGTGAGGGG: the “relative binding free energy” value is 0.17 kcal/mol.
With TTAGCCACGTGAGTTA, the “relative binding free energy” value was 0.25 kcal/mol.
AGGAGCACGTGTAAGT: the “relative binding free energy” value is 0.03 kcal/mol.
With GGTCACACGTGAGGCT, the “relative binding free energy” value is 0.2 kcal/mol.
As for TACGGCACGTGATCGG, the “relative binding free energy” value worked out at 0.05 kcal/mol.
For TATCGCACGTGTAGTT, the “relative binding free energy” value worked out at 0.1 kcal/mol.
GGAATCACGTGTGATT: the “relative binding free energy” value came out at 0.17 kcal/mol.
Regarding ACTATCACGTGTAGGA, the “relative binding free energy” value was 0.25 kcal/mol.
With AGTTACACGTGGAGGT, the “relative binding free energy” value was determined as 0.14 kcal/mol.
Consider TCTTACACGTGGCGGT, for which the “relative binding free energy” value is 0.12 kcal/mol.
Consider ATTTTCACGTGCGAGG, for which the “relative binding free energy” value amounted to 0.18 kcal/mol.
The result for TGTGACACGTGTTACG reads 0.08 kcal/mol; that for TGATACACGTGAGCGT, 0.17 kcal/mol; that for TCGTTCACGTGCAGGT, 0.18 kcal/mol.
Regarding CGAGTCACGTGTTGAT, the “relative binding free energy” value worked out at 0.14 kcal/mol.
As for GGTAACACGTGATGGT, the “relative binding free energy” value came out at 0.18 kcal/mol.
As to GTTTTCACGTGTTGGT, the “relative binding free energy” value was determined as 0.32 kcal/mol.
The result for GTTTGCACGTGTTGGG reads 0.14 kcal/mol; that for TTGTACACGTGAGCAT, 0.3 kcal/mol.
For GATGGCACGTGTTAGG the value was 0.06 kcal/mol; for AGTGCCACGTGTGCTG, -0.12 kcal/mol.
The result for GGGGACACGTGCAATG reads 0.11 kcal/mol.
On to GGATTCACGTGGATGA, for which the “relative binding free energy” value turned out to be 0.35 kcal/mol.
The result for AAAGTCACGTGCGGTG reads 0.05 kcal/mol; that for CTGTGCACGTGTCGGT, 0.02 kcal/mol; that for CGATTCACGTGTTGGT, 0.29 kcal/mol.
As to ATTTTCACGTGTTTGG, the “relative binding free energy” value turned out to be 0.3 kcal/mol.
Regarding AATGGCACGTGTAAAG, the “relative binding free energy” value came out at 0.13 kcal/mol.
Take AGATTCACGTGTCGTG: the “relative binding free energy” value is 0.07 kcal/mol.
Consider TTCTGCACGTGTTAAG, for which the “relative binding free energy” value turned out to be 0.13 kcal/mol.
Consider ATTTTCACGTGGGCAA, for which the “relative binding free energy” value is 0.2 kcal/mol.
With TTAGACACGTGGGGGG, the “relative binding free energy” value was -0.09 kcal/mol.
For GTAAGCACGTGTAGGA the value was -0.11 kcal/mol.
With ATATGCACGTGTTGTA, the “relative binding free energy” value was -0.07 kcal/mol.
As to TTGTCCACGTGGTTTT, the “relative binding free energy” value stood at 0.05 kcal/mol.
With GACGGCACGTGTTTTT, the “relative binding free energy” value turned out to be 0.1 kcal/mol.
With ATGGTCACGTGGTGAT, the “relative binding free energy” value was found to be 0.03 kcal/mol.
With GGTTCCACGTGGGCGA, the “relative binding free energy” value amounted to 0.1 kcal/mol.
Regarding AGATGCACGTGGTTTA, the “relative binding free energy” value is -0.24 kcal/mol.
Regarding TGGGTCACGTGTGTCG, the “relative binding free energy” value was determined as 0.12 kcal/mol.
The result for TTGTGCACGTGCCTTT reads -0.18 kcal/mol; that for GTGGTCACGTGAGCGA, 0.23 kcal/mol.
Turning to AGGTGCACGTGGATAG, the “relative binding free energy” value was -0.15 kcal/mol.
As to TGTGACACGTGCATTG, the “relative binding free energy” value stood at 0.09 kcal/mol.
As to ACTGGCACGTGGGAAG, the “relative binding free energy” value was -0.17 kcal/mol.
The result for TATTACACGTGAGATT reads 0.24 kcal/mol; that for TGCCTCACGTGGTTTG, 0.13 kcal/mol; that for TAATTCACGTGTCGGT, 0.23 kcal/mol.
In the case of TTATACACGTGTATTA, the “relative binding free energy” value was -0.05 kcal/mol.
TATAACACGTGTGGAA: the “relative binding free energy” value is 0.19 kcal/mol.
In the case of AGGGTCACGTGATAGT, the “relative binding free energy” value came to 0.26 kcal/mol.
For the sequence TTCTGCACGTGTTTAA, the “relative binding free energy” value is -0.04 kcal/mol.
Regarding TATAACACGTGGTTGA, the “relative binding free energy” value was -0.15 kcal/mol.
On to AGGGTCACGTGGTATG, for which the “relative binding free energy” value was found to be 0.02 kcal/mol.
As to CATGTCACGTGTTATG, the “relative binding free energy” value was 0.06 kcal/mol.
The result for TTGGACACGTGATGTT reads 0.15 kcal/mol; that for CTATACACGTGGGAGT, -0.11 kcal/mol.
Regarding TTGCGCACGTGCTGTT, the “relative binding free energy” value was -0.25 kcal/mol.
AGAAGCACGTGTGTCG: the “relative binding free energy” value was -0.03 kcal/mol.
As to AGGTGCACGTGAAGGC, the “relative binding free energy” value stood at 0.29 kcal/mol.
ATGCTCACGTGGTTTA: the “relative binding free energy” value was determined as 0.1 kcal/mol.
For AGGGTCACGTGTAATG, the “relative binding free energy” value came out at 0.14 kcal/mol.
TGGGACACGTGTAGCG: the “relative binding free energy” value was 0.01 kcal/mol.
The result for GCAGTCACGTGTTAGT reads 0.16 kcal/mol.
For GATTTCACGTGACGGG, the “relative binding free energy” value came to 0.42 kcal/mol.
For ATGTTCACGTGGTAGT, the “relative binding free energy” value turned out to be 0.22 kcal/mol.
As to TTTCGCACGTGAGTGT, the “relative binding free energy” value worked out at 0.01 kcal/mol.
The result for TATGGCACGTGGCGCT reads -0.18 kcal/mol; that for ATTTACACGTGTATGT, 0.12 kcal/mol; that for GGTTACACGTGGCGTT, 0.09 kcal/mol.
